Test results published in PubChem BioAssay (NCI).
“And” between values parts separate entries of the source, which are not always exact repeats. Identical values can stand only once.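 Where inhibition never reached the appropriate level, the endpoint shown equals the highest concentration tested. Otherwise, values were interpolated linearly from a five-concentration, 48-hour dose response in 96-well plates. At the GI50, growth is halved. At the TGI there is no net growth.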 Square brackets hold non-standard residues; d marks the D form. Peptide text beside a SMILES is read from it. pGlu = O=C1CC[CH](C(=O)O)N1; Thz = O=C(O)[CH]1CSCN1

Tested on: NCI-H322M lung
Experiment: growth of human tumour cells (NCI), 48 h

Structure (SMILES)	GI50	TGI
CSc1ccc(C2=NN(C(C)=O)C(c3ccc(-c4cc(Cl)c(Cl)cc4Cl)o3)C2)cc1 (stereo not given)	18.8 µM	39.9 µM
Cc1cc2c(F)c(Oc3ncnc(Nc4ccc(N5C[C@@H](C)N[C@@H](C)C5)cc4)c3C#N)cc(F)c2[nH]1	2.66 µM	9.65 µM
COc1ccc(Nc2nc(NCCNc3ccnc4cc(Cl)ccc34)nc(N3CCOCC3)n2)cc1	10.3 µM	22.6 µM
O=S(=O)(O)c1ccc(N=Nc2ccccc2)cc1		> 100 µM
O=C1c2ccccc2N(O)C1(c1ccccc1)C1CCCC=C1N1CCOCC1 (stereo not given)		> 100 µM
CCOC(=O)C(NC(=O)c1cccc(Cl)c1)(Nc1ccc(S(=O)(=O)Nc2cc(C)on2)cc1)C(F)(F)F (stereo not given)		> 100 µM
NCC(=O)Nc1ccccc1		> 100 µM
O=C(c1c(F)c(F)c(F)c(F)c1F)c1c(F)c(F)c(F)c(F)c1F		11.2 µM
COC[C@H](NC(=O)c1cnc(C)s1)C(=O)N[C@@H](COC)C(=O)N[C@@H](Cc1ccccc1)C(=O)[C@@]1(C)CO1	> 93 µM	> 100 µM
CC(=O)O.CN1[CH-]N(Cc2ccc(C#N)cc2)c2ccccc21.[Ag+]	53 µM	> 100 µM
Cc1c(CN2CCN(C(=O)[C@H](C)O)CC2)sc2c(N3CCOCC3)nc(-c3cnc(N)nc3)nc12	0.353 µM and 0.233 µM	4.33 µM and 3.74 µM
CC1=C(C#N)C23C(=O)N(c4ccccc4)C(=O)C2=C(O)C=CC3(O)N1Cc1ccc(Cl)cc1Cl (stereo not given)	7.13 µM	20.9 µM
Cc1ncn(-c2ccccc2O)c1C		> 100 µM
O=C(Nc1ccccc1)N(CCN(Cc1ccccc1)C(=O)Nc1ccccc1)CCN(Nc1ccccc1)C(=O)Nc1ccccc1		> 100 µM
O=C(O)Cc1cccc2c(=O)cc(-c3ccccc3)oc12	> 1000 µM	> 1000 µM
COC(=O)/C=C1/SC(=Nc2cccc(Cl)c2)N(CCc2c[nH]c3ccc(O)cc23)C1=O	1.87 µM	3.93 µM
CCCCCCCCCCCCSC(=S)c1c(C)[nH]n(-c2ccccc2)c1=O		48.6 µM
Cc1nc2c(c(N3CCN(C)CC3)n1)Cc1ccccc1-2		> 100 µM
CC(C)C1CSC2N1C(=O)C2(OCc1ccccc1)C1CC1 (stereo not given)		> 100 µM
CCOC(=O)C1(C(=O)OCC)C(C(C)(C)C)=C(C)c2ccccc21		54.3 µM
Cc1cc(OCc2nnc3n2S(=O)(=O)c2ccccc2N3C)ccc1Cl		> 100 µM
COC(=O)C(CNC(=O)/C=C/c1ccc(OC)c(OC)c1)NC(=O)/C=C/c1ccc(OC)c(OC)c1 (stereo not given)		> 100 µM
COc1ccc2c(c1)c1c3c(ccc4ncn2c43)N(CCO)CCN=1		0.752 µM
COc1cc2nc(Nc3cccc(Cl)c3)nc(N)c2cc1OC	9.84 µM	24.4 µM
CCOC(=O)C(=Cc1ccc(C#N)cc1)C(=O)OCC	3.48 µM	14.4 µM

Structure (SMILES)	GI50	TGI
O=c1onc2n1-c1ccc(Cl)cc1C(=S)N1CSCC21 (stereo not given)		> 100 µM
CCOC(=O)c1c(N)sc2c1CC(C)CC2 (stereo not given)		> 100 µM
COc1ccc(C(=O)C2CCC(C(=O)O)C2)cc1 (stereo not given)		> 100 µM
COC(=O)[C@H](Cc1ccccc1)NC(=O)c1ccc(CNC(=O)/C=C/c2ccc(OCc3ccccc3)cc2)cc1		> 88 µM
COc1ccc(C2SCC(=O)N2c2ccc(-n3c(-c4ccccc4)nc4ccccc4c3=O)cc2)cc1 (stereo not given)		> 100 µM
Cc1ccc(OCC2CO2)c(Br)c1 (stereo not given)		> 100 µM
COc1ccc(CC(=O)NCCc2ccc(OC)c(OC)c2OC)cc1		> 100 µM
CSc1cc([C@@H]2C[C@H]2c2ccc(Cl)cc2)on1	23.7 µM	71.8 µM
CC(=O)Nc1nc(C)c(S(=O)(=O)NC(=O)NC2NC(=O)NC2=O)s1 (stereo not given)		> 100 µM
CCC(CC)n1cnc2c(-c3cnc(N)cn3)nc(N3CC4CCC(C3)O4)nc21	0.352 µM	> 100 µM
COc1ccc2[nH]cc(CCNC(=O)[C@H](Cc3ccc(O)cc3)NC(=O)[C@@H](NCC(F)(F)F)C(C)C)c2c1		> 100 µM
CC1CCN(C(C)C)P(=S)(Cc2ccccc2)O1 (stereo not given)		> 100 µM
O=c1[nH]c(NCc2cccnc2)nc2nc[nH]c12		> 100 µM
CCOC(=O)c1c(O)cn2c1[nH]c1cccc3cccc2c31		> 100 µM
Cc1cccc(-c2nnc3s/c(=C\c4ccc(N(C)C)cc4)c(=O)n23)c1		> 100 µM
COC(=O)CCC(=O)Nc1ccc(Cl)cc1C		> 100 µM
CC1=C([Te]c2ccccc2)C(=O)c2ccccc2C1=O	0.388 µM	2.88 µM
c1ccc(SC(Sc2ccccc2)=C2CCC2)cc1		> 100 µM
O=c1cc(-c2ccc(F)cc2)[nH]c2ncccc12		> 100 µM
CCOP(=O)(CC(=O)C1CC1)OCC		> 100 µM
CO/C=C(/C(=O)OC)[C@@H]1C[C@@H]1c1ccc2ccccc2c1		> 100 µM
C#CC1(O)CCC2[C@@H]3CCc4cc(Oc5nc(F)nc(-c6c(C)c(C(=O)OCC)n7ccccc67)n5)ccc4C3CC[C@@]21C (stereo not given in full)		> 100 µM
CN1C(=O)CCC(N2C(=O)c3cccc(NCCOCCOCCNC(=O)c4cc5c(o4)C(=O)c4ccccc4C5=O)c3C2=O)C1=O (stereo not given)	1.45 µM	2.78 µM
Cc1ccc(OP(=O)(Oc2ccc(C)cc2)N2C=Cc3ccccc3C2C#N)cc1 (stereo not given)		> 100 µM
NS(=O)(=O)c1ccc(NC(=O)N/N=C/c2ccccc2[N+](=O)[O-])cc1		> 100 µM

Structure (SMILES)	GI50	TGI
COc1cc(C2C=C(c3ccccc3)Oc3cc4c(cc32)OCO4)cc(OC)c1OC (stereo not given)		> 100 µM
CCOC(=O)c1[nH]c2cc(Cl)ccc2c1[C@@H](C(=O)NC(C)(C)C)N(CC)C(=O)CCCCC#Cc1cccc2c1CN(C1CCC(=O)NC1=O)C2=O (stereo not given in full)	< 0.0296 µM	> 48.6 µM
COC(NC(=O)Nc1ccc(C)cc1)(C(F)(F)F)C(F)(F)F		> 100 µM
O=[N+]([O-])c1ccc(-c2csc(N=Nc3c(O)[nH]c4ccccc34)n2)cc1		> 100 µM
O=C1Nc2c(Cl)cc(Cl)cc2/C1=N/N=C/c1ccco1		> 100 µM
Nc1nc(=O)n(C2CCC(CO)O2)cc1F (stereo not given)		> 100 µM
Cn1c(-c2ccco2)ccc1-c1ccc(C=O)o1		> 100 µM
COc1ccc(Br)cc1NC(=O)Nc1cccc2c1ccn2Cc1ccnc(N)c1	11.3 µM and 9.88 µM	45.5 µM and > 10 µM
Cc1nc(-c2ccccc2)cn2c1nc1ccccc12		91.6 µM
COc1ccccc1C#Cc1ccccc1C#Cc1ccc(OCCCCCCOc2ccccc2C#Cc2ccccc2C#Cc2ccccc2OC)cc1	> 100 µM	> 100 µM
COC(=O)CCc1ccc(CCC(=O)OC)cc1		> 100 µM
COC(=O)C1=C(C)NC(=O)N2[C@@H](CCOCc3ccccc3)CC[C@@H]12		> 50 µM
NC(=S)N1N=C2CCCCCC[C@@H]2[C@H]1c1ccccc1		> 100 µM
Cc1ccc2c(C(C[N+](=O)[O-])c3ccccc3)c(-c3ccccc3)[nH]c2c1 (stereo not given)	37.3 µM	> 95 µM
CCN(CC)CCN(CC)CC.CCN(CC)CCN(CC)CC.[Cu+2].[Cu+2].[O-][Cl+3]([O-])([O-])[O-].[OH3+].[OH3+]	18.8 µM	35.2 µM
O=S(=O)(N=C1C(Cl)=C(Cl)C(=NS(=O)(=O)c2ccccc2)C(Cl)=C1Cl)c1ccccc1	20.6 µM	55.1 µM
CCOP(=O)(OCC)Oc1c(OC)c2[nH]c(C(=O)OC)cc2c2c(C(=O)O)c[nH]c12		> 100 µM
NC(=O)c1cc(N2CC2)c([N+](=O)[O-])cc1[N+](=O)[O-]	> 200 µM	> 200 µM
Cc1ccc(NCC2(/N=C/c3ccccc3)OC(CO)C(O)C2O)cc1 (stereo not given)		> 100 µM
NC(=O)CC1OC(=O)Cc2cc3c(c(O)c21)C(=O)c1c(O)cccc1C3=O (stereo not given)		> 100 µM
CCCCN(CC)C(=O)C(=O)Cc1nc2ccc(C(=O)c3ccccc3)cc2[nH]c1=O		> 100 µM
Cc1ccc(S(=O)(=O)n2cc(C=O)c(-c3cn(S(=O)(=O)c4ccc(C)cc4)cc3-c3cn(S(=O)(=O)c4ccc(C)cc4)cc3C=O)c2)cc1		> 100 µM
CSC(=NC(=O)c1ccccc1Cl)SCCSC(=NC(=O)c1ccccc1Cl)SC		> 100 µM
CCCCCCN(CCCCCC)CCC(=O)c1ccc2cc(Br)c3ccccc3c2c1		> 100 µM
O=P1(c2ccccc2)C(c2ccccc2)CCC1c1ccccc1 (stereo not given)		> 100 µM

Structure (SMILES)	GI50	TGI
Fc1cc(C2=Nn3c(COc4ccccc4Cl)nnc3S/C2=C\c2ccc(Cl)cc2)c(Cl)cc1Cl		> 100 µM
CC(=O)OC12C(C)=C(C)C(=O)N1c1ccccc1N2C(C)=O (stereo not given)		> 100 µM
COc1ccc(NC(=O)Oc2ccc3c(C)cc(=O)oc3c2)c(OC)c1 (tested in a mixture with another compound)		> 100 µM
CCC1=C(c2ccc(OC)cc2)C(C)(C)Oc2c1ccc(O)c2CN1CCCC1	2.5 µM	9.2 µM
C[C@H](Nc1nc(N)c(N=O)c(=O)n1C)C(=O)O		> 10 µM
O=C1C2CCN(CC2)C1CN1CCOCC1 (stereo not given)		30.2 µM
COc1cnc2c(c1)C(=O)c1c-2n(CCCN2CCCC2)c(=O)c2cc([N+](=O)[O-])ccc12	0.0522 µM	6.14 µM
CC1C(C)(C)C23CC12C1(OCCO1)C3Br (stereo not given)		> 100 µM
Cc1ccc(CNc2ccc3nc(CCC4CCCCC4)[nH]c3c2)cc1	2.97 µM	75.6 µM
COC1OC2COC1(OCc1ccccc1)C1OC(C)(C)OC21 (stereo not given)		> 100 µM
COC(=O)Nc1nc2ccc(NS(=O)(=O)c3cccs3)cc2[nH]1		> 100 µM
CCOC(=O)C12CCC(=O)N1N(C)c1ncccc1N2 (stereo not given)		> 100 µM
COc1cc(-c2nn(-c3cccc(NC(=O)Nc4ccc(Cl)c(C(F)(F)F)c4)c3)cc2-c2ccncc2)ccc1Cl	1.5 µM	13.9 µM
COC(=O)C1=CO[C@@H](C)[C@@H]2Cn3ccc4c5ccccc5nc-4c3C[C@H]12		> 100 µM
Cc1ccc2c(c1)nc1n2C(c2c(F)cccc2F)SC1 (stereo not given)		> 100 µM
Nc1nc(Cl)cc(NCC2(CCO)CCC2)n1		> 100 µM
O=C(O)c1nc2cc(Cl)ccc2[nH]c1=O		> 100 µM
O=C1CCC(C(=O)N2CSCC2C(=O)O)N1 (stereo not given) ([pGlu]-[Thz]-OH; configuration not given here)		> 100 µM
CN(C)Cc1cc(Cl)c(O)c(CN(C)C)c1		> 100 µM
S=C(NCc1ccccc1)Nc1sc(=NCc2ccccc2)nc2sc3c(c12)CCN(N1CCc2c(sc4nc(=NCc5ccccc5)sc(NC(=S)NCc5ccccc5)c24)C1)C3		76.6 µM
COc1ccc(S(=O)(=O)Nc2ccc(-c3csc(N4C(=O)/C(=C/c5ccccc5[N+](=O)[O-])N=C4c4ccccc4)n3)cc2)cc1Cl		> 100 µM
CC(C)(C)C1=CC(=N/N=c2\scc(-c3ccccc3)n2-c2ccccc2)C=C(C(C)(C)C)C1=O		> 100 µM
c1ccc2c3c(ccc2c1)-c1[nH]ncc1CCO3		> 100 µM
O=C(OC1=CCN(Br)C1=O)C1=C(O)C(=O)N(Br)C1		> 100 µM
